From PubChem BioAssay AID686979 (National Center for Advancing Translational Sciences (NCATS), 2013)
Hit rate of the full screen: of about 420,000 compounds, about 50,000 (12%) were called active. This list was built around the results that the source calls inconclusive (neither active nor inactive); the mix of calls is not that of the screen. Calls follow the shape of the dose curve; as a rule, active = well fitted inhibition curve with a large enough effect; inconclusive = small, poorly fitted or top-dose-only effect; inactive = flat fitted curve, though single readings scatter. Potencies of inconclusive entries are left out as doubtful fits.

assay: qHTS for Inhibitors of human tyrosyl-DNA phosphodiesterase 1 (TDP1): qHTS in cells in presence of CPT; conditions: chicken DT40 Tdp1-/-;hTDP1 cells + 20 nM CPT, ATP luminescence, 48 h; activity change, negative = growth inhibition: at 46.2 µM (top of the series); also: nearly all actives have a fitted effect of over 55% in size
Method in brief: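 Chicken DT40 Tdp1-/- cells complemented with human TDP1, 400 cells/well, exposed to compounds plus 20 nM camptothecin for at least 48 h at 37 C; viability read as ATP content by CellTiter-Glo luminescence.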
% is scaled to controls: 0 for no effect and ±100 for the full control effect; potency is read from the fitted curve at half-maximal effect; tags tell the direction and shape of the fitted curve.

| Compound | Potency | activity change, negative = growth inhibition |
| --- | --- | --- |
| CCCCCCC(=O)NNC(=O)c1c(O)c2ccccc2n(CCC)c1=O | inconclusive [inhibitor, single point] |  |
| COc1cccc(CNc2nc(NC(C)C)nc3ccsc23)c1OC | active: 18.4 µM |  |
| CCc1nnc(SCC(=O)Nc2cc(OC)ccc2OC)nc1CC | inconclusive [inhibitor, single point] |  |
| CCC(=O)Nc1nn(C)c2nc3c(C)cccc3cc12 | inactive |  |
| COc1cccc(CN2CCC(N(CCc3ccccc3)Cc3ccccc3)CC2)c1OC | inconclusive [inhibitor, single point] |  |
| CC(=O)N1CCc2cc(C(=O)CN3CCN(c4ccccc4F)CC3)ccc21 |  | inconclusive: -31.8% [inhibitor] |
| O=C(O)CNC(=O)c1ccc(NC(=O)/C(=C/c2ccccc2)NC(=O)c2ccco2)cc1 | inactive |  |
| Cc1ccc(CCNC(=O)c2cc3n(n2)CCCN(Cc2ccc(C)cc2)C3=O)cc1 | inconclusive [inhibitor, partial curve] |  |
| CCN(CC)S(=O)(=O)c1cc(NC(=O)CSc2nnc(N)s2)ccc1C | inconclusive [inhibitor, partial curve, poor fit] |  |
| Cc1cccc(Cn2c(COc3ccc(Cl)cc3)nc3ccccc32)c1 | active: 23.1 µM |  |
| Cc1nnc(SCC(=O)NC(=O)NCc2ccco2)s1 | inactive |  |
| S=C(Nc1ccccc1Oc1ccccc1)NC1CCCC1 | inconclusive [inhibitor, single point] |  |
| CCOC(=O)c1sc(N2C(=O)C(O)=C(C(=O)c3ccco3)C2c2ccco2)nc1C (configuration not stated) | inconclusive [inhibitor, partial curve] |  |
| O=C(CCc1nc2ccccc2c(=O)[nH]1)Nc1cc(Cl)ccc1N1CCCC1 | inactive |  |
| Cc1ccc(-c2c[n+](CC(=O)Nc3ccc(C)cc3C)c3n2CCC3)cc1 | inconclusive [inhibitor, single point] |  |
| CN(Cc1ccccn1)C(=O)C1CCC(=O)N(CCc2ccc(Cl)cc2)C1 (configuration not stated) | inactive |  |
| CC(=O)N1CCc2cc(S(=O)(=O)NC(CC(C)C)C(=O)N3CCn4c3nc3ccccc34)ccc21 (configuration not stated) | inactive |  |
| COc1cccc(CNC(=O)COC(=O)C2CCN(c3ccc(C(F)(F)F)cn3)CC2)c1 |  | inconclusive: -33.4% [inhibitor] |
| ClCC(CNCc1ccccc1)c1ccccc1 (configuration not stated) | inactive |  |
| Cn1c(SCc2nc3ccccc3s2)nnc1-c1ccc2c(c1)OCO2 | inconclusive [inhibitor, partial curve] |  |
| Cc1ccc(OCCNC(=O)c2cc(C(=O)NCCOc3ccc(C)cc3)cc([N+](=O)[O-])c2)cc1 | inconclusive [inhibitor, single point] |  |
| Fc1ccc(/C=N/Nc2nc3ccccc3[nH]2)cc1F | inconclusive [inhibitor, single point] |  |
| COc1ccc(CSCC(=O)N/N=C/c2ccccc2OCc2ccccc2)cc1 | inconclusive [inhibitor, single point] |  |
| Cc1ccc(-c2[nH]c3cc(C(N)=O)ccc3c(=O)c2O)cc1 | inconclusive [inhibitor, single point] |  |

| Compound | Potency | activity change, negative = growth inhibition |
| --- | --- | --- |
| Cc1cc(C(=O)CCC(=O)N(C)CC(=O)Nc2c(Cl)cccc2Cl)c(C)s1 | inactive |  |
| COc1ccc2nc(N3CCCC(C(=O)NCCc4ccc(OC)c(OC)c4)C3)sc2c1 (configuration not stated) | inconclusive [inhibitor, single point] |  |
| Cc1ccsc1C(=O)N1CCC1(C)C(=O)Nc1cccc(C#N)c1 (configuration not stated) | inconclusive [inhibitor, single point] |  |
| O=C1CN(C(=O)c2ccccc2F)C(c2ccc(F)cc2)c2cc(Br)ccc2N1 (configuration not stated) | inactive |  |
| Cc1ccc(NC(=O)CS(=O)CC(=O)N(c2ccc(C)cc2)C(C)C(=O)NC2CCCCC2)cc1 (configuration not stated) | inconclusive [inhibitor, single point] |  |
| O=C(Oc1ccc2ccccc2c1Cl)N1CCCCCC1 | inactive |  |
| O=Cc1ccccc1OCc1nnsc1Cl | inconclusive [inhibitor, single point] |  |
| Cc1ccc(NC(=O)N2CCN(c3ccc(Cl)c(Cl)c3)CC2)cc1 | inconclusive [inhibitor, partial curve, poor fit] |  |
| C[n+]1ccccc1COc1ccc(C(C)(C)C)cc1 | active: 2.06 µM |  |
| O=C(NCCNC(=O)c1ccc(-c2ccc(Cl)c(Cl)c2)o1)c1cnccn1 | inconclusive [inhibitor, single point] |  |
| CCOc1ccc(-n2c(C)cc(/C=N/N(C)C)c2C)cc1 | active: 9.2 µM |  |
| OC(CON=C1c2ccccc2-c2ccccc21)CN1CCNCC1 (configuration not stated) | active: 11.6 µM |  |
| COc1cc(C(=O)Nc2ccc(C)cc2)c2ccccc2n1 | active: 0.82 µM |  |
| COCCN1C(=O)CSCC1(C)C(=O)Nc1c(C)cccc1C (configuration not stated) | inactive |  |
| COc1ccc(-c2nc(CN3CCC(C(=O)NCCc4ccccc4)CC3)c(C)o2)cc1OC | inactive |  |
| CN(CC(=O)N1CCCc2c1c(=O)oc1ccc(O)cc21)Cc1ccccc1 | inconclusive [inhibitor, single point] |  |
| CCCCn1cc(S(=O)(=O)c2ccc(C)c(C)c2)c(=O)c2cc(F)c(N(CC)CC)cc21 | active: 7.31 µM |  |
| COc1ccc(-c2nnc(SCC(=O)NCc3ccco3)o2)cc1 | inactive |  |
| Nc1c(C(=O)O)cnn1-c1ccccc1 | inconclusive [inhibitor, single point] |  |
| CCCCNc1nc(CC)c2c(c1C#N)CCCC2 | inconclusive [inhibitor, partial curve] |  |
| CCn1nc(-c2ccccc2)c(-c2ccccc2)c(C(=O)Nc2nc(C)c(C(C)=O)s2)c1=O | active: 1.64 µM |  |
| Cc1c(Cl)ccc2c(C(=O)Nc3cc(C(C)(C)C)on3)cc(-c3ccccn3)nc12 | inconclusive [inhibitor, single point] |  |
| COc1ccc(/C=C/C(=O)c2ccccc2O)cc1 | inconclusive [inhibitor, partial curve] |  |
